According to PubChem BioAssay AID1745853 (National Center for Advancing Translational Sciences (NCATS), 2022):
This is one part of the list. Further columns of the screen follow, without active or inactive calls.

How the values were obtained:
Assay in all cases: Primary Screen for Target Class Profiling of Small Molecule Inhibitors of Methyltransferases
[1] = target: Glycine N-methyltransferase (Homo sapiens) (UniProt Q14749); conditions: purified enzyme, MTase-Glo SAH luminescence; measured here: GNMT inhibition; at 40 µM; stronger effect = lower value
How it was run: (§1)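 Each enzyme was assayed with SAM and its substrate. SAH formation detected by MTase-Glo luminescence; single-point 40 uM screen[…].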

[2] = target: Guanidinoacetate N-methyltransferase (Homo sapiens) (UniProt Q14353); conditions: purified enzyme, MTase-Glo SAH luminescence; measured here: GAMT inhibition; at 40 µM; stronger effect = lower value
How it was run: as §1

[3] = target: Histamine N-methyltransferase (Homo sapiens) (UniProt P50135); conditions: purified enzyme, MTase-Glo SAH luminescence; measured here: HNMT inhibition; at 40 µM; stronger effect = lower value
How it was run: as §1

[4] = target: Nicotinamide N-methyltransferase (Homo sapiens) (UniProt P40261); conditions: purified enzyme, MTase-Glo SAH luminescence; measured here: NNMT inhibition; at 40 µM; stronger effect = lower value
How it was run: as §1

[5] = target: Phenylethanolamine N-methyltransferase (Homo sapiens) (UniProt P11086); conditions: purified enzyme, MTase-Glo SAH luminescence; measured here: PNMT inhibition; at 40 µM; stronger effect = lower value
How it was run: as §1
On the % scale 0 is the no-effect control and ±100 the full control effect.

SMILES	activity change, negative = inhibition [1] [%]	activity change, negative = inhibition [2] [%]	activity change, negative = inhibition [3] [%]	activity change, negative = inhibition [4] [%]	activity change, negative = inhibition [5] [%]
CN(CCCN1C(=O)c2cc3occc3n2CC1(C)C(=O)NC1CCCCC1)C1CCCCC1 (configuration not stated)	1.55	0	-2.95	11	0.721
CNC(=O)c1ccc(C)c(-n2c(C)cc(OCc3ccc(F)cc3F)c(Br)c2=O)c1	-6.03	-5.3	3.06	-19.7	-11.3
COc1ccccc1NC(=O)Cn1c(=O)oc2cc(S(=O)(=O)N3CC(C)CC(C)C3)ccc21 (configuration not stated)	6.32	0.419	1.4	0.863	-0.6
Cc1ccc(S(=O)(=O)Cc2noc([C@@H]3C[C@@H](O)CN3Cc3cccc(C#N)c3)n2)cc1	-1.95	-0.403	1.62	-4.73	1.96
CC(C)N1CCC(N2C[C@@H](CO)[C@H](c3nc(C4CC4)no3)C2)CC1	-1.42	-3.66	-16.8	-2.13	-0.814
CC(C)S(=O)(=O)c1ccc2nccc(Nc3ccc4scnc4c3)c2c1	-3.06	1.38	-6.36	-21.3	-7.48
OC[C@@H]1CNC[C@H]1C1CCN(Cc2ccsc2)CC1	-5.33	-12.7	-10.7	-11.1	-5.77
CCCN(CCc1ccccc1)C1CCc2c(O)cccc2C1 (configuration not stated)	5.15	10.1	-0.364	-3.4	9.09
Cc1ccsc1CN1CCc2nc(N3CCOCC3)[nH]c(=O)c2CC1	-5.51	-5.17	-2.69	-11.5	-4.91
N.N.N.N.N.N.N.N.N.N.N.N.N.N.O.O.[Ru+4].[Ru+5].[Ru+5]	-69.5	-7.11	-15.1	-18.6	-11.2
Cc1ccc(Cn2c(=O)c3ccccc3n3c(SCC(=O)Nc4ccc(C)cc4)nnc23)cc1	6.1	0	14	6.35	8.51
Cc1noc([C@@H]2CN(Cc3cccnc3)C[C@H]2CO)n1	-1.71	-9.42	-2.14	-3.2	-0.862
COC(=O)c1cc2n(n1)CC(C)(C(=O)NC1CCC(C)CC1)N(Cc1ccccc1C)C2=O (configuration not stated)	0.418	0	5.21	-0.889	-0.577
CCCN1C(=O)c2cc3sc(CC)cc3n2CC1(C)C(=O)NC1CCC(C)CC1 (configuration not stated)	-0.664	1.55	2.82	0.929	-0.831
COC(=O)c1c(NC(C)=O)c2cc(NC3CCCC(C)(C)C3)cnc2n1CC1CCCO1 (configuration not stated)	-4	-3.84	-2.41	-7.24	-3.6
CN(C)C(=O)CNC(=O)Cc1ccccc1	0.19	-0.962	12.3	-10.7	0.059
CC(C)(F)CC(NC(c1ccc(-c2ccc(S(C)(=O)=O)cc2)cc1)C(F)(F)F)C(=O)NC1(C#N)CC1 (configuration not stated)	0.175	–	5.09	–	–
CCN1C(=O)C2(CCN(S(=O)(=O)c3c(C)nn(C)c3C)CC2)c2ccccc21	-9.99	-11.8	-7.04	-21.1	-14.1
CC(C)CCNC(=O)CCc1nnc2n(Cc3ccc(F)cc3)c(=O)c3ccccc3n12	-4.15	2.23	5.82	1.8	0.12

SMILES	activity change, negative = inhibition [1] [%]	activity change, negative = inhibition [2] [%]	activity change, negative = inhibition [3] [%]	activity change, negative = inhibition [4] [%]	activity change, negative = inhibition [5] [%]
Cc1ccc2nc(C(=O)N3CCCC3c3cc(C(C)C)on3)cn2c1 (configuration not stated)	-5.25	-1.56	-3.49	-7.44	-6.88
COc1cccc(Cn2nc3n(CCc4ccccc4)c(=O)c4ccccc4n3c2=O)c1	-8.38	0.379	-0.7	-9.77	-2.65
Cc1nc(C)c2c(n1)N(Cc1ccc(-c3ccccc3-c3nn[nH]n3)cc1)C(=O)CC2	-16.4	0.529	11.6	-18.7	1.16
CCCSCCCN1C(=O)c2cc3sc(CC)cc3n2CC1(C)C(=O)NC1CCCCC1 (configuration not stated)	2.98	0	7.06	12.2	1.33
CN1CCCN(C[C@@H]2CN(C(=O)c3ccn(C)n3)C[C@@H]2CO)CC1	-2.15	1.02	-1.49	-2.46	1.17
COc1ccc(NC(=O)Cn2nc3n(Cc4ccc(F)cc4)c(=O)c4ccccc4n3c2=O)cc1	-3.59	-3.33	1.34	-7.03	-4.07
Cc1ccccc1CC(=O)N1CC(F)(F)C[C@H]1c1nnc(C2CC2)o1	0.85	1.25	2.77	-7.66	2.44
C=CS(=O)(=O)NC1CCN(C(=O)CNc2cc(I)c(Cl)cc2OC)CC1	-13.3	-5.43	2.58	-24	-0.686
COc1ccc(-c2cc3n(n2)CC(C)(C(=O)NCc2ccccc2OC)N(Cc2ccc(F)cc2)C3=O)cc1 (configuration not stated)	2.54	0	2.97	2.01	-3.4
CCc1ccc(C(=O)NC(Cc2c[nH]c3ccccc23)C(=O)OCC(=O)c2ccccc2)cc1 (configuration not stated)	-0.77	4.83	4.5	-5.72	-1.56
CC(N=C(NC#N)Nc1ccncc1)C(C)(C)C (configuration not stated)	-7.48	4.44	1.1	-4.92	6.11
C=C1[C@@H]2CC[C@@]3(C)[C@H](c4ccoc4)OC(=O)C[C@]13O[C@H]1CC(=O)C(C)(C)[C@H](C(O)C(=O)OC)[C@]12C (some centres not stated)	0.141	-6.15	6.41	-20.8	1.03
COc1cccc(CNC(=O)c2cc3n(n2)CC(C)(C(=O)NC2CCCC2)N(C)C3=O)c1 (configuration not stated)	2.15	4.72	-1.54	1.99	-1.6
Cc1ccc(CNC(=O)C2(C)Cn3c(nc4ccccc43)C(=O)N2Cc2cccc(C)c2)cc1 (configuration not stated)	2.35	2.84	0.969	2.56	-0.758
COc1ccc(-c2nccn2CC(CO)Cc2ccsc2)cc1O (configuration not stated)	-1.28	-3.48	-34.8	-4	-2.05
CC1(C)CC[C@]2(C(=O)O[C@@H]3O[C@H](CO)[C@@H](O)[C@H](O)[C@H]3O)CC[C@]3(C)C(=CCC4[C@@]5(C)CC[C@H](O[C@@H]6O[C@H](C(=O)O)[C@H](O)[C@H](O)[C@H]6O)C(C)(C)C5CC[C@]43C)[C@@H]2C1 (some centres not stated)	-4.31	3.82	4.35	-8.42	-4.58
COc1ccc2cc3n(c2c1)CC(C)(C(=O)NC1CCCCC1)N(Cc1ccccc1C)C3=O (configuration not stated)	-2.59	-0.033	-2.43	-3.67	-6.34
CC1(C(=O)NC2CCCCCC2)Cn2c(cc3occc32)C(=O)N1CCN1CCCC1 (configuration not stated)	1.7	0.49	-4.64	4.16	0.708
Cc1nn2c(c1-c1ccccc1-c1ccccc1)N(C(=O)c1cnccn1)CCC2	-7.11	-10.3	-4.02	-16.2	4.86
